# Measurements as given in the supplement of paper PMC8728848.
# About 410 targets per protein were measured; listed, in parts, are those with the strongest signals and a random draw of the rest.
# Experiments:
# Experiment in all cases: glycan array binding signal (z-score within array); higher = stronger binding
# Settings in all cases: glycan notation: IUPAC condensed, linker removed
# Gal(b1-3)GlcNAc(b1-2)Man = test system: Gal(b1-3)GlcNAc(b1-2)Man
# Procedure, shortened: (§1)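 The binding signal is a Z-score computed within each array and averaged over linkers. Arrays of the same protein sequence at different concentrations or buffers were also averaged together. Data originate from 3228 arrays in the Consortium for Functional Glycomics database, kept only where the protein sequence was available.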
# [1] = test system: Gal(b1-3)GlcNAc(b1-3)Gal(b1-4)GlcNAc
# Procedure, shortened: as §1
# [2] = test system: Gal(b1-3)[Fuc(a1-4)]GlcNAc(b1-2)Man(a1-3)[Gal(b1-3)[Fuc(a1-4)]GlcNAc(b1-2)Man(a1-6)]Man(b1-4)GlcNAc(b1-4)GlcNAc
# Procedure, shortened: as §1
# [3] = test system: Gal(b1-3)[Fuc(a1-4)]GlcNAc(b1-6)GalNAc
# Procedure, shortened: as §1
# [4] = test system: Gal(b1-3)[GlcNAc(b1-6)]GalNAc
# Procedure, shortened: as §1
# [5] = test system: Gal(b1-3)GlcNAc(b1-3)Gal(b1-4)GlcNAc(b1-3)Gal(b1-4)GlcNAc(b1-2)[Gal(b1-3)GlcNAc(b1-3)Gal(b1-4)GlcNAc(b1-3)Gal(b1-4)GlcNAc(b1-6)]Man(a1-6)[Gal(b1-3)GlcNAc(b1-3)Gal(b1-4)GlcNAc(b1-3)Gal(b1-4)GlcNAc(b1-2)Man(a1-3)]Man(b1-4)GlcNAc(b1-4)[Fuc(a1-6)]GlcNAc
# Procedure, shortened: as §1
# [6] = test system: Gal(b1-3)GlcNAc(b1-3)Gal(b1-4)[Fuc(a1-3)]GlcNAc(b1-6)[Gal(b1-3)GlcNAc(b1-3)]Gal(b1-4)Glc
# Procedure, shortened: as §1
# [7] = test system: Gal(b1-3)GlcNAc(b1-3)Gal(b1-4)[Fuc(a1-3)]GlcNAc
# Procedure, shortened: as §1
# [8] = test system: Gal(b1-3)[Fuc(a1-4)]GlcNAc(b1-2)Man
# Procedure, shortened: as §1
# [9] = test system: Gal(b1-3)GlcNAc(b1-6)GalNAc
# Procedure, shortened: as §1
# Gal(b1-3)GlcNAc = test system: Gal(b1-3)GlcNAc
# Procedure, shortened: as §1
# [10] = test system: Gal(b1-3)[Fuc(a1-4)]GlcNAc(b1-3)Gal(b1-4)GlcNAc
# Procedure, shortened: as §1
# [11] = test system: Gal(b1-3)[Neu5Ac(b2-6)]GalNAc
# Procedure, shortened: as §1
# [12] = test system: Gal(b1-3)[Fuc(a1-4)]GlcNAc(b1-3)Gal(b1-4)[Fuc(a1-3)]GlcNAc
# Procedure, shortened: as §1
# [13] = test system: Gal(b1-3)[GlcNAc(b1-6)]GlcNAc
# Procedure, shortened: as §1
# [14] = test system: Gal(b1-3)[Neu5Ac(a2-6)]GalNAc
# Procedure, shortened: as §1
# [15] = test system: Gal(b1-3)[Neu5Ac(a2-6)]GlcNAc(a1-4)Gal(b1-4)Glc
# Procedure, shortened: as §1
substance,measurement,setting,value
Meso764 (Homo sapiens) (chain not printed),glycan array binding signal (z-score),Gal(b1-3)GlcNAc(b1-2)Man,0.689
same,glycan array binding signal (z-score),[1],-0.725
same,glycan array binding signal (z-score),[2],5.6
same,glycan array binding signal (z-score),[3],-0.749
same,glycan array binding signal (z-score),[4],-0.305
Thrombomodulin Extracellular (Homo sapiens) (chain not printed),glycan array binding signal (z-score),[5],7.65
same,glycan array binding signal (z-score),[1],-0.382
M-Ficolin G221F (Homo sapiens) (chain not printed),glycan array binding signal (z-score),[6],-0.162
Gal 3 (Homo sapiens) (chain not printed),glycan array binding signal (z-score),[6],-0.219
FGF2 (chain not printed),glycan array binding signal (z-score),[7],0.708
same,glycan array binding signal (z-score),[8],1.9
MBP (Homo sapiens) (chain not printed),glycan array binding signal (z-score),[9],-0.396
Collectin K1 (Homo sapiens) (chain not printed),glycan array binding signal (z-score),Gal(b1-3)GlcNAc,-0.094
same,glycan array binding signal (z-score),[2],0.194
CLEC-2 (Homo sapiens) (chain not printed),glycan array binding signal (z-score),[10],-0.004
same,glycan array binding signal (z-score),[11],-0.104
STIM-3 (Mus musculus) (chain not printed),glycan array binding signal (z-score),[10],0.787
Galectin-8 C-terminal CRD (Homo sapiens) (chain not printed),glycan array binding signal (z-score),[12],-0.136
M-Ficolin G221F A256V (Homo sapiens) (chain not printed),glycan array binding signal (z-score),[4],-0.331
Gal 8 long (Homo sapiens) (chain not printed),glycan array binding signal (z-score),[13],-0.303
Gal 8-short (Homo sapiens) (chain not printed),glycan array binding signal (z-score),[13],0.955
M-Ficolin (Homo sapiens) (chain not printed),glycan array binding signal (z-score),[14],-0.154
Serum Amyloid P component (Homo sapiens) (chain not printed),glycan array binding signal (z-score),[15],-0.356
NCAM1 (Homo sapiens) (chain not printed),glycan array binding signal (z-score),[11],-0.339
